# Data published in the supplement of paper PMC4967469.
# A lower IC50 marks a more sensitive line; a limit (>, <) means that the fit lies beyond the doses tested. The AUC spans the tested range (256-fold, ending at the top dose) of the same fit; it is 1 without any effect and falls as sensitivity rises. Any top dose called inferred comes from the curve model; the source does not state it.
# Compound: O=C1NC(=O)/C(=C\c2ccc3nccnc3c2)S1 [AS605240]
# Experiment: Viability of human cancer cell lines after 72 h of drug (GDSC screen)
# Conditions: top dose inferred
# Method: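 Human cancer cell lines in 384-well plates, medium with 10% serum, drug for 72 h over a 256-fold dose range (nine 2-fold or five 4-fold steps up to the top dose). Adherent lines were fixed and stained with the nucleic acid dye Syto60, suspension lines read with resazurin; signal relative to control wells, capped at 0 and 100%. One two-parameter sigmoid per drug and line, fitted in a mixed model over all curves with the slope shared within a line.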
Cell Line,AUC,IC50 [µM]
"KYSE-510 (oesophagus, adherent, top dose 20 µM)",0.985,> 20
"Capan-2 (pancreas, adherent, top dose 20 µM)",0.984,> 20
"HT-144 (melanoma, adherent, top dose 20 µM)",0.978,> 20
"Becker (glioma, adherent, top dose 20 µM)",0.939,> 20
"KYSE-70 (oesophagus, adherent, top dose 20 µM)",0.971,> 20
"PFSK-1 (medulloblastoma, adherent, top dose 20 µM)",0.876,> 20
"PEO1 (ovary, adherent, top dose 20 µM)",0.855,17
"COLO-320-HSR (large intestine, suspension, top dose 20 µM)",0.901,19.9
"U-2-OS (osteosarcoma, adherent, top dose 20 µM)",0.978,> 20
"LU-134-A (small cell lung carcinoma, suspension, top dose 20 µM)",0.954,> 20
"SW872 (soft tissue, adherent, top dose 20 µM)",0.968,> 20
"JHOS-3 (ovary, adherent, top dose 20 µM)",0.947,> 20
"CAS-1 (glioma, adherent, top dose 20 µM)",0.972,> 20
"TK10 (kidney, adherent, top dose 20 µM)",0.953,> 20
"NCI-H1435 (lung adenocarcinoma, semi-adherent, top dose 20 µM)",0.962,> 20
"A2780 (ovary, semi-adherent, top dose 20 µM)",0.506,1.3
"VM-CUB-1 (bladder, adherent, top dose 20 µM)",0.988,> 20
"AN3-CA (endometrium, adherent, top dose 20 µM)",0.932,> 20
"LNZTA3WT4 (glioma, adherent, top dose 20 µM)",0.949,> 20
"ESO51 (oesophagus, semi-adherent, top dose 20 µM)",0.653,3.96
"NB14 (neuroblastoma, adherent, top dose 20 µM)",0.984,> 20

Cell Line,AUC,IC50 [µM]
"CAL-54 (kidney, adherent, top dose 20 µM)",0.852,19
"TE-9 (oesophagus, adherent, top dose 20 µM)",0.959,> 20
"SW982 (soft tissue, adherent, top dose 20 µM)",0.897,> 20
"EVSA-T (breast, adherent, top dose 20 µM)",0.928,> 20
"NCI-H520 (lung squamous cell carcinoma, adherent, top dose 20 µM)",0.888,> 20
"Calu-6 (lung adenocarcinoma, adherent, top dose 20 µM)",0.96,> 20
"A498 (kidney, adherent, top dose 20 µM)",0.936,> 20
"MHH-NB-11 (neuroblastoma, adherent, top dose 20 µM)",0.978,> 20
"SW948 (large intestine, adherent, top dose 20 µM)",0.921,> 20
"NCI-H2452 (mesothelioma, adherent, top dose 20 µM)",0.984,> 20
"GI-1 (glioma, adherent, top dose 20 µM)",0.854,14.7
"NB13 (neuroblastoma, adherent, top dose 20 µM)",0.985,> 20
"ES5 (Ewing sarcoma, adherent, top dose 20 µM)",0.731,6.35
"PANC-02-03 (pancreas, adherent, top dose 20 µM)",0.633,3.15
"NCI-H1876 (small cell lung carcinoma, adherent, top dose 20 µM)",0.874,19.8
"EMC-BAC-1 (lung adenocarcinoma, adherent, top dose 20 µM)",0.902,> 20
"8305C (thyroid, adherent, top dose 20 µM)",0.962,> 20
"GAK (melanoma, adherent, top dose 20 µM)",0.93,> 20
"YT (lymphoid neoplasm, suspension, top dose 20 µM)",0.485,1.14
"OPM-2 (myeloma, suspension, top dose 20 µM)",0.887,15.2
